Among all 110,000 compounds or so, about 230 (0.21%) showed an effect of 50% or more. The list shows a part of the results.
biological target: DPAP1 (Plasmodium falciparum, UniProt Q8IIJ9); test: primary screen, percent inhibition; read by cleavage of a fluorogenic dipeptide substrate; higher = more effect of the substance; design: species or system P. falciparum D10 trophozoite lysates; single well
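Further: 30 min substrate incubation versus DMSO and 10 µM JCP410 controls.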

DPAP1, sequence (Q8IIJ9 whole entry, looked up): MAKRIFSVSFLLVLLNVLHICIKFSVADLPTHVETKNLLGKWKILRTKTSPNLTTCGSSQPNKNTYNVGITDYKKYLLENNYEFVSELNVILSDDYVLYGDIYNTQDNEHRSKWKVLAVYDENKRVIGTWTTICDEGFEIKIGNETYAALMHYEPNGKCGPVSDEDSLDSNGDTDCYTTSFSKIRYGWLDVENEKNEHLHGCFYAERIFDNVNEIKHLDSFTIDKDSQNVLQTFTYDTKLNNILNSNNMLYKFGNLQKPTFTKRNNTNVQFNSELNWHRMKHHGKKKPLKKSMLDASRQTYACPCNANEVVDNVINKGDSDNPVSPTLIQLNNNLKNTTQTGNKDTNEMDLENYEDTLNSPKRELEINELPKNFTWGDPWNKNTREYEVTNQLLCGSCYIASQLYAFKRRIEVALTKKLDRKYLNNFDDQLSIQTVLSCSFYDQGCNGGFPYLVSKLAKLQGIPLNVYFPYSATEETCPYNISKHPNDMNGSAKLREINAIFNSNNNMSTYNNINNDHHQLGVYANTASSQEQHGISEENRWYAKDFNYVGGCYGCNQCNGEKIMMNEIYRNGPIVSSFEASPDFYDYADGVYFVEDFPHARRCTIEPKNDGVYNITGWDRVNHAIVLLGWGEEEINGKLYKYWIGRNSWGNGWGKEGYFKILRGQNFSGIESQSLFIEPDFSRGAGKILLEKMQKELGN

Row | SMILES | % Inhibition @ 10 uM
1 | C=CCN1C(=O)S/C(=C/c2ccc(OC(C)C)cc2)C1=O | 0.83%
2 | Cc1cc2c(c(=O)n1Cc1cccnc1)C(c1ccoc1)C(C#N)=C(N)O2 (centres unmarked) | 2.01%
3 | CCc1cc2c(cc3c(=O)n(CC(=O)N4CCN(Cc5ccccc5)CC4)ncn32)s1 | 1.68%
4 | O/C(=C\c1nc2ccccc2nc1O)c1cccs1 | 0.562%
5 | CCCCC1=C(O)C2N=CC=CC2=[N+](c2ccccn2)C1=O (centres unmarked) | 0.674%
6 | CC1CC(C)CN(C(=O)CCNS(=O)(=O)c2ccc3nc(O)ccc3c2)C1 (centres unmarked) | 7.52%
7 | CCOC(=O)c1c(NC(=O)CNCc2ccccc2)sc(C)c1C | -8.11%
8 | O=C(CSCCc1ccccn1)Nc1ccccn1 | -1.46%
9 | CSc1nn(-c2cc(Oc3cccc(C)c3)ncn2)c(N)c1C#N | 4%
10 | CCN(CC)S(=O)(=O)c1ccc(Cl)c(C(=O)O)c1 | 7.33%
11 | COc1ccccc1-c1cc(C(=O)N[C@@H](CC(C)C)C(=O)NCC#N)sc1-c1ccccc1OC | -6.46%
12 | CC(=O)Nc1nonc1N1C(=N)S/C(=C\c2ccc(-c3ccc(F)c(Cl)c3)o2)C1=O | 1.83%
13 | CC1CC(C)CN(Cc2nc3c(c(=O)n(C)c(=O)n3C)n2CCCO)C1 (centres unmarked) | -5.1%
14 | CC(C)CNC(=O)CN(c1ccc(F)cc1)S(=O)(=O)c1ccccc1 | -3.92%
15 | CC1=C(C(=O)Nc2ccc(C)cc2)C(c2ccc3c4c(cccc24)CC3)NC(=O)N1C (centres unmarked) | 1.92%
16 | COc1cccc(C2c3c(oc4cc(C)c(C)cc4c3=O)C(=O)N2CCCN2CCOCC2)c1 (centres unmarked) | -2.91%
17 | CCCN(Cc1cccc(O)c1)CC1CC1 | -2.02%
18 | Brc1ccccc1CN1CCc2c([nH]c3ccccc23)C1 | -1.38%
19 | O=C(C1=C(O)C(=O)N(CCc2ccccc2)C1c1ccccc1F)c1ccccc1 (centres unmarked) | 3.35%
20 | COc1nc2c(C)cccc2cc1-c1noc(C(C)C)n1 | 4.18%
21 | O=C(CSc1cn(CC(=O)N2CCCC2)c2ccccc12)NCc1ccccc1 | 3.77%
22 | CC(C)OCCCNC(=O)Cn1c(=O)c2cccn2c2cccnc21 | -1.81%
23 | Cc1cccc(CNC(=O)CN2C(=O)CSc3ncccc32)c1 | 3.3%
24 | COc1cccc(S(=O)(=O)NCc2ccc(C(=O)Nc3ccc4sc(C)nc4c3)cc2)c1 | 5.15%
25 | COCCNC(=O)c1ccc(CNS(=O)(=O)c2ccc(C(C)(C)C)cc2)cc1 | -0.256%
26 | COc1c(Br)cc2c(C)c(C(=O)O)oc2c1Br | 0.716%

Row | SMILES | % Inhibition @ 10 uM
27 | O/C(=C\C1=NCC(c2ccccc2)O1)c1ccc(Br)cc1 (centres unmarked) | -0.864%
28 | Cc1ccn2c(NC(=O)c3cc4ccccc4oc3=O)c(-c3ccccc3)nc2c1 | -3.02%
29 | Cc1ccc(NC(=O)Nc2ccc(F)cc2)nc1 | -0.99%
30 | O=C(C1CCCCC1)n1cnc2ccccc21 | 14.9%
31 | Cc1ccc(NC(=O)/C=C/c2ccc3c(c2)OCO3)cc1 | -2.12%
32 | Cc1ccc(C(=N)NOC(=O)COc2ccc(C)c(C)c2)cc1 | 1.96%
33 | Cc1ccc2[nH]c(SCC(=O)Nc3ccccc3F)nc2c1 | 0.5%
34 | COc1cc(C2C(C#N)=C(N)Oc3cc(C)n(Cc4ccccc4)c(=O)c32)cc(OC)c1OC (centres unmarked) | -5.48%
35 | CCOC(=O)C1=C(CS(=O)(=O)c2ccc(C)c(C)c2)NC(=O)NC1c1ccc(OC)c(OC)c1 (centres unmarked) | -2.16%
36 | Cc1oc(-c2ccc(Cl)cc2)nc1CSCC(=O)NC1CCCCCC1 | 2.37%
37 | CN1C(=O)/C(=C\c2ccc(N(C)C)cc2)N=C1SCC(=O)Nc1ccc(Cl)cc1 | 2.68%
38 | C=C1c2cc(C)ccc2NC(=O)N1c1cccc(Cl)c1 | -5.26%
39 | CN(CCCNC(=O)c1cc(-c2ccc(Cl)cc2)[nH]n1)Cc1ccccc1 | -2%
40 | CN(C)S(=O)(=O)n1cc(/C=C(\NC(=O)c2ccccc2)C(=O)NCCO)c2ccccc21 | 11.9%
41 | CCCc1ccc(OCC(O)CN2CCC(C)CC2)cc1 (centres unmarked) | 2.23%
42 | CCN1CCN(C2CCCCC2NS(=O)(=O)c2ccccc2)CC1 (centres unmarked) | -0.671%
43 | CC(=O)c1c(C)[nH]c(C(=O)OCc2ccccc2)c1C | 3.01%
44 | Cc1nc2c(C(=O)N3CCN(C)CC3)cnn2c(C)c1Cc1ccc(Cl)cc1 | -2.26%
45 | O=C1CCc2cccc3c(O)c(Cc4ccccc4)c(O)c1c23 | 6.13%
46 | COc1cccc(CNC(=O)c2cnn3c4c(cnc23)CCCCC4)c1 | 3.3%
47 | O=C(NC1(c2ccccc2)CC1)N1CCN(Cc2ccccc2)CC1 | -1.52%
48 | Cc1ccccc1NC(=O)c1cncc(Br)c1 | 0.632%
49 | Cc1cc2nc(O)c(O)nc2cc1S(=O)(=O)N1CCN(C2CCCCC2)CC1 | 12.4%
50 | COC(=O)c1cc2oc(C)cc2n1CC(=O)Cc1ccc(OC)cc1OC | -11.4%
51 | COc1ccccc1-c1nc(-c2ccccc2)no1 | 0.0538%
52 | CC(=O)c1ccc(OCC(O)CN2CCN(c3ccccc3)CC2)cc1 (centres unmarked) | 0.215%

Row | SMILES | % Inhibition @ 10 uM
53 | C=CCOc1ccc(CNCC2CCCO2)cc1 (centres unmarked) | 0.163%
54 | Cc1cccc(C(=O)Nc2cccc3c2CCCC3)c1 | -3.27%
55 | O=C(c1ccccc1)c1cccc(C(=O)c2ccccc2)n1 | 2.02%
56 | Cc1ccccc1-c1nc(CSCC(=O)NCc2cccnc2)c(C)o1 | 0.689%
57 | COc1ccc(C2C(=O)N(C3CCCCC3)CC(=O)N2CCC2=CCCCC2)cc1OC (centres unmarked) | -3.94%
58 | CCN(CC)C(=O)CSC1=C(C#N)C(c2cc(OC)c(OC)c(OC)c2)CC(=O)N1 (centres unmarked) | 3.66%
59 | CCCc1cc(C(=O)Nc2cnn(Cc3ccc(F)cc3)c2)no1 | 0.628%
60 | CCN1CCN(C2CCN(C3CCN(Cc4ccccc4)CC3)CC2)CC1 | -5.51%
61 | CC(C)CC(NC(=O)C1CCC(C)CC1)C(=O)NCc1ccccn1 (centres unmarked) | 2.64%
62 | N=C1/C(=C\c2ccc(SCc3ccc(Cl)cc3)o2)C(=O)N=C2SC(N3CCOCC3)=NN12 | -5.27%
63 | CCN(Cc1ccccc1)c1nc2c(-c3ccccc3)nnn2c2ccccc12 | 3.59%
64 | O=C(C1CCN(S(=O)(=O)c2cccc3cccnc23)CC1)N1CCCC1 | -9.18%
65 | O=[N+]([O-])c1ccc(-n2ccc3ccccc32)cc1 | -5.51%
66 | CCc1n(CC(O)COc2ccc(C(=O)OC)cc2)c2ccccc2[n+]1C (centres unmarked) | -5.28%
67 | COCCCNC(=O)CCCc1nnc2n(CCC(C)C)c(=O)c3sccc3n12 | -0.759%
68 | CCCc1cc(=O)oc2cc(O)cc(O)c12 | 1%
69 | COc1cccc2c1Oc1ncccc1N(C(=O)CCC(=O)NCC(C)c1ccccc1)C2 (centres unmarked) | 4.52%
70 | Cc1cccc(NC(=O)C2CCCN2C(=O)OC(C)(C)C)c1 (centres unmarked) | -8.64%
71 | CC(=O)c1cc(-c2ccccc2)n(CCC(=O)N2CCCCCC2)c1C | 1.47%
72 | CCCCOn1c(C)c(C(=O)OCC)c2c3no[n+]([O-])c3ccc21 | -4%
73 | COc1ccc(C(=O)Cc2cc(OC)cc(OC)c2)cc1 | -1.89%
74 | CN1C(=O)c2ccccc2C(C(=O)NCCN2CCN(Cc3ccccc3)CC2)C1c1cccs1 (centres unmarked) | -3.87%
75 | CC(=O)c1cccc(NC(=O)COc2ccc(Br)cc2Cl)c1 | -3.78%
76 | CCCC(C)NC(=O)c1ccc(OCC)cc1 (centres unmarked) | -1.36%
77 | COc1ccc(CCNC(=O)CCc2c(C)nc3ncnn3c2C)c(OC)c1 | 2.93%
78 | CCOc1cccc(N2C(=O)CC(N3CCC(C(=O)O)CC3)C2=O)c1 (centres unmarked) | -2.67%

Row | SMILES | % Inhibition @ 10 uM
79 | CC1CCCC(N2CCN(c3ccc([N+](=O)[O-])cc3)CC2)C1 (centres unmarked) | -3.6%
80 | Cc1ccc2c(c1)-c1c(cnn1CC(=O)NCc1ccc(F)cc1)CO2 | -2.67%
81 | Cc1cc2nc(S(=O)(=O)Cc3cccc(C(F)(F)F)c3)[nH]c2cc1C | -1.81%
82 | CC1SC(c2cccc(Cl)c2)NC1=O (centres unmarked) | -2.32%
83 | CC(=O)NCC/N=C/C1=C(O)c2sccc2N(Cc2cccc(F)c2)S1(=O)=O | -4.03%
84 | CCOC(=O)c1c(NC(=O)COC(=O)/C=C/c2ccco2)sc2c1CCC2 | 2.8%
85 | O=C(O)c1cccc(NC2=C(Cl)C(=O)N(c3ccc(Cl)c(Cl)c3)C2=O)c1 | -6.7%
86 | Cc1ccc(CCN2C(=O)CN(C3CCCCC3)C(=O)C2c2ccc(F)cc2)cc1 (centres unmarked) | -7.73%
87 | COc1ccc(/C=C/C(=O)NC(C)Cc2ccccc2)cc1OC (centres unmarked) | -2.63%
88 | O=C1NC2(CCCCCC2)Oc2ccccc21 | 5.24%
89 | Cc1nc2c(-c3ccc(F)cc3)c(C)nn2c(C)c1CC(=O)NCc1ccccn1 | -2.45%
90 | COC(=O)NCCOc1nc(N(C)C)nc(N(C)C)n1 | 1.52%
91 | Cc1cc(C)cc(-n2c(C)cc(C=C3C(=O)N(C)C(=O)N(C)C3=O)c2C)c1 | 4.95%
92 | Cc1nn2c(=O)/c(=C/c3cccc(Oc4ccccc4)c3)sc2nc1=O | -1.52%
93 | Cc1ccc(Cc2c(C)nc3c(C(=O)NC4CCCC(C)C4C)cnn3c2O)cc1 (centres unmarked) | 0.0654%
94 | COc1ccc(OC)c(CNc2nn3nnnc3c3ccccc23)c1 | -4.51%
95 | OCCN1CCN(Cc2cccs2)CC1 | -0.292%
96 | CCc1nn(C(C)C(=O)N(C)Cc2ccccc2)c(=O)c2cc3occc3n12 (centres unmarked) | -2%
97 | Cc1cc(NCc2cccnc2)nc2ccccc12 | -1.37%
98 | CCn1c2ccccc2n2c(SCc3ccccc3)nnc12 | 1.23%
99 | CCc1ccc(NC2=CC(=O)CC(c3ccco3)C2)cc1 (centres unmarked) | 2.51%
100 | CC1CCN(Cc2ccccc2CO)CC1 | -4.03%
101 | O=C1OC(c2ccccc2F)=N/C1=C\c1coc2c(Cl)cc(Cl)cc2c1=O | -5.22%

Source: publication PMC6919601, “Identification of Plasmodium dipeptidyl aminopeptidase allosteric inhibitors by high throughput screening” (PLoS ONE, 2019)
